B1: LINE1-mini (parent)
chain: GGCAGAGCUCAACACAGCGUGGCAAAGUGGCUGUGGCUAGACUGCC

The source gives no read counts; variants with many changes may rest on few reads.

This series covers variants of B1. The series is described as follows: self-cleavage, relative activity (ratio to wild type); higher = more cleavage; in vitro, sequencing; the parent is a self-cleaving ribozyme.
For G22C C37U G40A U43G, the self-cleavage stood at 0.04.
As to G22U A25U U32C U34G A41U C46G, the self-cleavage is 0.
As for G21U C23A U34A, the self-cleavage worked out at 0.23.
Regarding G22A A25C C42A, the self-cleavage stood at 0.08.
The same measure for G22C G27U U32G C42U U43G: 0.01.
The same measure for G22U A26G G29C G36C: 0.02.
Take G22U A26G U28C U38C: the self-cleavage came out at 0.46.
Turning to G22C C23A A39G, the self-cleavage was found to be 0.07.
With G21U A26U G29U G30A, the self-cleavage is 0.9.
The same measure for G21U G29A U43A: 0.09; for G22U C45G C46A: 0.27.
To G21A C42U C46U belongs 0.67; to C23A C31U G35A G44C C46G, 0.03; to C23A G27U U43A G44A, 0.14.
Turning to U20G G22A G40U, the self-cleavage turned out to be 0.22.
Turning to G22U C23A C45A, the self-cleavage stood at 1.96.
As to G22A A24C A39C, the self-cleavage was determined as 0.02.
To G21A G22U A25U G27C G30U belongs 1.08; to G21U U32C C37A, 0.04; to C23A G30C C45U, 0.9.
With G21A G27C G35U C37U U38A, the self-cleavage was determined as 0.15.
Take G22U U32A G35C: the self-cleavage was found to be 0.17.
G21U G29C C31A C42U C45G: the self-cleavage was determined as 0.03.
To G22A C37A G40C belongs 0.01.
Regarding G21A G35C C37U, the self-cleavage stood at 0.06.
To U20G G29C G36U belongs 0.31; to G21U G30U G35U C45U, 0.07.
To G21U U32G C46U belongs 0.12; to G22U G29U G40U, 0.09.
The same measure for G22U U32C G36C: 0.08; for G21C A39C C42U: 0.02.
As for G21U A26G G44A, the self-cleavage was found to be 0.32.
To G21A G35A A41G belongs 0.04.
Consider G21U G36U C45G, for which the self-cleavage was determined as 0.03.
The same measure for G22U A25U G36U: 0.03; for C23A C42U C46A: 0.11; for G22C U28C A41G: 0.06.
Consider G21C U28A G35C, for which the self-cleavage worked out at 0.12.
To G22C G33A G36A G40A belongs 0.05; to G21C U38G C42A, 0.02.
Regarding G22C C23G C37A, the self-cleavage is 0.05.
To G21C U34A U38A belongs 0.03; to G21U A26C U28C C37A A41U, 0.09; to G21C G27A C37U, 0.06.
Consider G21A G22A G36U C37U G40U, for which the self-cleavage is 0.18.
To U20C U28A C31G C37A C42U belongs 0.06; to C23A A26U U28G C31U, 0.55; to G21C G22U G40A, 0.06.
For C23A C37A G40C A41G, the self-cleavage came to 0.
The same measure for G22A A24U G40U A41U: 0.05.
To G22U G36A A41U belongs 0.2; to G21U G29A G35A, 0.27; to U20C U28C G30C G36U C37A, 0.01.
To G21C U28A G29C G33U belongs 0.5; to U20G G22U C37A, 0.06.
G21A U32C G36A C46U: the self-cleavage came out at 0.05.
To U20C U34C G44U belongs 0.06; to G21U G22A U28C G35C A41U, 0.15; to U20C U28C G35U G36A U43A, 0.16.
For the variant U20C G30C C37A U38C, the self-cleavage came out at 0.02.
To G21A C31G U34G A39U belongs 0.02; to G22U G29U C42A, 0.42.
To G21U C31G G36A U38G belongs 0.01; to G21U U28A U38C C45G, 0.02.
As to G22U G40A A41C, the self-cleavage worked out at 0.06.
For G21C A25G C45A, the self-cleavage worked out at 0.21.
Turning to G22A A25C G29U, the self-cleavage turned out to be 0.31.
To G21A C31A G33A belongs 0.04.
Consider G21A G29A C42U C45A C46A, for which the self-cleavage was 0.01.
Consider C23A G30C G44A, for which the self-cleavage turned out to be 0.2.
To G21U C23U C31U G35U belongs 0.05; to U20G G40A C45U, 0.11; to G22U U34G G35U, 0.04.
To G22U G33C C42A belongs 0.04; to G22C A41G C42A, 0.03.
For G21A A26U U43G G44A, the self-cleavage was determined as 0.16.
In the case of U20G G35C A39G, the self-cleavage was 0.07.
Consider U20G G27U C46G, for which the self-cleavage was 1.27.
To C23A C37G C46G belongs 0.02; to G22U C37U G40U C45A, 0.02.
Turning to G21C A26C G29U, the self-cleavage was 0.13.
As for G21C U28A A41G, the self-cleavage was 0.18.
With G21A G27C U32A C45U, the self-cleavage amounted to 0.07.
On to U20C G29U G36C, for which the self-cleavage stood at 0.01.
To G22A G29U G44A belongs 0.17; to G21U A24G G27A U34C A41G, 0.09.
As to G22A A25G G40U, the self-cleavage is 0.28.
Regarding G22A C31G U32A G36C A41G, the self-cleavage came to 0.07.
The same measure for G21U G33A C45A: 0.02.
To G21A A26U G36C belongs 0.36.
Regarding U20G G33U U38C G44A, the self-cleavage is 0.03.
The same measure for C23A A26U G27U C42U: 0.36.
On to G22U G27C U28G G40A, for which the self-cleavage is 0.07.
To G22A C23A U28G G30C C37G A41G belongs 0; to G22U C23A G27U C31G, 0.19; to G22U G40U G44C, 0.09.
The same measure for G22A U34A U38G A39U G40A G44C: 0.04; for G21U A26G C42A: 0.38; for U20G G40U G44A: 0.03.
To U20G C23U U32C A39C belongs 0.12; to G22C C23U A25U A41G C45U, 0.72; to G21C A24G U38G, 0.01.
With G21U G22A G27A C42A, the self-cleavage stood at 0.16.
Regarding G21U C23G U43A, the self-cleavage is 0.03.
On to G21U C37A A41G G44A, for which the self-cleavage is 0.01.
To G21U G30U U38A belongs 1.02.
To G22U G29C U43A belongs 0.03; to G21A C23U C31A G33A C42A, 0.07; to C23A C31A G44C, 0.03.
As to G21U A24C G30U, the self-cleavage was found to be 1.84.
For G22U C23A C31A C37A, the self-cleavage was found to be 0.07.
C23A G29C C46G: the self-cleavage amounted to 1.51.
To G21U G22C G33U C45G C46U belongs 0.02; to C23A A25U U38G, 0.02.
Consider G21U C31G U43A, for which the self-cleavage came out at 0.04.
Take G21U G22U G33U C45U C46A: the self-cleavage was 0.06.
To G21U U28A C31U belongs 0.46; to G22C G33U U38A, 0.02.
On to G22A C23U G30A C31A, for which the self-cleavage worked out at 0.9.
Consider G21C U28A A39C C45U, for which the self-cleavage came out at 0.
To G21A A25C C31A G33U belongs 0.02; to G22U A25C C31G, 0.11.
To G22U G27A C31A U43G C45U belongs 0.8.
To U20C G29U G30A C31A belongs 0.46; to G22A A26C G29C G35C, 0.06; to G22C A26G G40U, 0.03.
On to G21C G29U C31A G33U, for which the self-cleavage stood at 0.01.
To G21C A25U A39U C42A G44U belongs 0.09; to G22C A39U G40A, 0.04; to G21U G33C U34C, 0.02.
Turning to G21A G22U A39C, the self-cleavage amounted to 0.11.
To G21A G35U C37G C42G C45G belongs 0.04.
The same measure for U20G U28A G36C C46U: 0.05; for G21U G27C C45A: 0.18.
The same measure for G21A G30A C31U C42G: 0.05; for G21U U28C G36A: 0.06.
Consider G22C A26U G27A U38G, for which the self-cleavage was determined as 0.03.
To U20C G29C A41U belongs 0.13; to G22A G30A G35A C46U, 0.11; to U20C U32A G44U, 0.
To G22U C23G A26C belongs 0.71; to G21A A41C G44U, 0.17; to G22C G36A C37U, 0.06.
The same measure for U20C G44U C46A: 0.08.
For G21A C37A A39G, the self-cleavage stood at 0.02.
On to U20C G22U U28A, for which the self-cleavage worked out at 0.33.
For the variant G21U G22U C46G, the self-cleavage was determined as 0.44.
As to C23A G36A A41G C42A, the self-cleavage is 0.03.
Take G21U C37A C45A: the self-cleavage worked out at 0.33.
To G22C U43C C46G belongs 0.08.
The same measure for G22U G27U A41G: 0.58; for G21A G22U A25G U34A C46A: 0.04.
In the case of G21A G36C C42G, the self-cleavage came to 0.1.
The same measure for G21U C23A G30C C37U G40A C45A: 0.04; for G21C C31U G40U: 0.02; for G22A U38C A39G G44U: 0.03.
To G21C G27A G33U G44A belongs 0.08.
To G21U G22C U34C belongs 0.15; to G22C A26G U34G A41U, 0.16; to G22C U28A C37G, 0.04.
Take C23A G29C C31G G36C C45U: the self-cleavage worked out at 0.29.
To G21C G22A G33U G40A C42G belongs 0.04.
The same measure for U20C U38G C45A: 0.
For G21U C37G C45U, the self-cleavage was determined as 0.04.
To G21C G22A C23U G36U A41G U43C belongs 0.05; to G21U G27A A41G, 0.28; to G22C C23A G44C C46U, 0.17.
